# Data taken from PubChem BioAssay AID686978 (National Center for Advancing Translational Sciences (NCATS), 2013).
# In all, about 420,000 compounds went through this assay and about 64,000 (15%) were called active. Inconclusive means that the source gave no clear call. Such entries were picked first, then a sample of the others. Calls come from the whole dose curve; as a rule, active = well fitted inhibition curve with a large enough effect; inconclusive = small, poorly fitted or top-dose-only effect; inactive = flat fitted curve, though single readings scatter. Potencies of inconclusive entries are left out as doubtful fits.
# Test: qHTS for Inhibitors of human tyrosyl-DNA phosphodiesterase 1 (TDP1): qHTS in cells in absence of CPT; note: nearly all actives have a fitted effect of over 55% in size
# Conditions: DT40 Tdp1-/- hTDP1 cells, no CPT, ATP luminescence, 48 h; activity change, negative = growth inhibition: at 46.2 µM (top of the series)
# In short: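 Seeded 400 DT40-hTDP1 cells/well (vehicle DMSO, no 20 nM CPT); pinned compounds; ≥48 hr at 37 °C; CellTiter-Glo luminescence as viability measure.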
# % is set by controls: 0 for no effect and ±100 for the full control effect; potency is the fitted concentration of half-maximal effect; tags give direction and shape of the fitted curve.
Compound,Potency,"activity change, negative = growth inhibition"
O=c1c2cc(Br)ccc2nc(-c2cccc(C(F)(F)F)c2)n1O,active: 10.3 µM,–
COC(=O)c1ccccc1NC(=O)COc1ccccc1[N+](=O)[O-],–,inconclusive: -30.5% [inhibitor]
Cn1c(SCc2ccccc2)nnc1-c1ccc2c(c1)OCO2,"inconclusive [inhibitor, single point]",–
CCNc1nc(NCC)nc(OCCOC(=O)Nc2ccccc2)n1,"inconclusive [inhibitor, single point]",–
Cc1ccc(-c2nc3ncccn3c2NC2CCCCC2)o1,"inconclusive [inhibitor, single point]",–
COc1ccc(-c2cn3nc(N4CCC(C(=O)Nc5ccc(Cl)cc5C)CC4)sc3n2)cc1,"inconclusive [inhibitor, single point]",–
Cc1ccc(N2CCN(c3c(CN4CCCC4)c(=O)oc4ccccc34)CC2)c(C)c1,"inconclusive [inhibitor, single point]",–
Cc1ccc(S(=O)(=O)NN=C2CC3CCC2(C)C3(C)C)cc1 (stereo not drawn),"inconclusive [inhibitor, single point]",–
COCCCNC(=O)c1c(NC(=O)c2cc(=O)c3ccccc3o2)sc2c1CCCC2,active: 5.17 µM,–
O=C(NN=Cc1cc([N+](=O)[O-])ccc1O)c1cccc2ccccc12,active: 7.31 µM,–
COc1cccc(N2CC(C)Cn3c2nc2c3c(=O)[nH]c(=O)n2C)c1 (stereo not drawn),–,inconclusive: -30.8% [inhibitor]
NS(=O)(=O)c1ccc(CCN2C(=O)CCC2=O)cc1,inactive,–
Cc1cc2c(c(-c3nc4ccccc4s3)c1)OC(CNC(=O)c1occc1C)C2 (stereo not drawn),"inconclusive [inhibitor, partial curve]",–
OCCCCC#Cc1c(-c2ccsc2)sc2ccccc12,"inconclusive [inhibitor, single point]",–
CCC(c1nnnn1-c1ccc2c(c1)OCCO2)N1CCN(c2ccc(C)cc2)CC1 (stereo not drawn),"inconclusive [inhibitor, single point]",–
c1ccc(CCn2nnc3ccccc32)cc1,"inconclusive [inhibitor, partial curve]",–
CCC1Oc2ccc(C)cc2N(CC(=O)NCC2CCCO2)C1=O (stereo not drawn),inactive,–
COc1c(S(=O)(=O)n2nc(C)cc2C)ccc(Cl)c1Cl,"inconclusive [inhibitor, partial curve]",–
CCOC(=O)Cc1csc(NC(=O)c2cc(=O)c3ccccc3o2)n1,"inconclusive [inhibitor, single point]",–
Cc1ccc2nc(-c3ccc(Cl)c(NC(=O)c4cccc([N+](=O)[O-])c4C)c3)oc2c1,inactive,–
CCn1ccc2cc(S(=O)(=O)N3CCC(C(=O)NCc4ccc(OC)cc4)CC3)ccc21,"inconclusive [inhibitor, single point]",–
Cc1c(C(=O)N2CCC2(C)C(=O)O)oc2ccccc12 (stereo not drawn),inactive,–
CCC/C(=N/NC(=O)c1ccccc1Cl)c1ccccc1,inactive,–

Compound,Potency,"activity change, negative = growth inhibition"
COc1ccc(C2N(c3ccc(OC)cc3)C(=S)N3CCCN23)cc1 (stereo not drawn),"inconclusive [inhibitor, full curve, poor fit]",–
O=C1N=C(N2CCCCC2)S/C1=C/C1=Cc2ccccc2OC1,"inconclusive [inhibitor, single point]",–
Cc1ccc(S(=O)(=O)n2nc(C)c(S(=O)(=O)N3CCC(C)CC3)c2C)cc1,inactive,–
CCOC(=O)c1sc(-c2ccccc2)cc1NC(=O)c1ccc(S(=O)(=O)N(CCOC)CCOC)cc1,"inconclusive [inhibitor, partial curve, poor fit]",–
N/C(=N\OC(=O)N1CCOCC1)c1ccc(Br)cc1,"inconclusive [inhibitor, single point]",–
COc1cc(/C=C/c2nc3cc(Cl)ccc3c(=O)n2-c2cccc(C(F)(F)F)c2)cc(OC)c1OC,"inconclusive [inhibitor, single point]",–
COc1ccc(-c2cnc3c(NC(C)=O)cc(-c4cc(F)ccc4OC)cn23)cc1OC,active: 5.8 µM,–
COC(=O)C1C2CC3c4[nH]c5cc(OC)ccc5c4CCN3CC2CC(OC2CCCCO2)C1OC (stereo not drawn),"inconclusive [inhibitor, single point]",–
CNc1ccc2c3c(cccc13)C(=O)N(C)C2=O,"inconclusive [inhibitor, single point]",–
CCCCOC(=O)C1=C(C)N(C)C(=O)NC1c1cc2c(cc1Br)OCO2 (stereo not drawn),"inconclusive [inhibitor, single point]",–
CCCCCCN1CCN(C2CN(Cc3ccc(C)cc3)S(=O)(=O)C2)CC1 (stereo not drawn),"inconclusive [inhibitor, single point]",–
COc1ccc(C(C)(O)c2nc(-c3cccc(C#N)c3)cs2)cc1 (stereo not drawn),active: 20.6 µM,–
CCCOc1cccc(C(=O)N(Cc2cccs2)C2CCS(=O)(=O)C2)c1 (stereo not drawn),"inconclusive [inhibitor, partial curve, poor fit]",–
CCOC(=O)c1ccc(N2C(=O)CC(N3CCC(C(N)=O)(N4CCCCC4)CC3)C2=O)cc1 (stereo not drawn),"inconclusive [inhibitor, single point]",–
OC(c1cccnc1)c1nc(/C=C/c2ccc(C(F)(F)F)cc2)cs1 (stereo not drawn),active: 2.59 µM,–
O=C(CCCN1C(=O)c2ccccc2C1=O)NCCN1C(=O)S/C(=C\c2cccs2)C1=O,"inconclusive [inhibitor, single point]",–
C/C=C(/C)C(=O)Nc1cccc(C2=NOC3(C2)C[C@H](C(N)=O)N(C(=O)c2ccc(Cl)cc2)C3)c1 (stereo partly drawn),"inconclusive [inhibitor, single point]",–
CC1(C(=O)Nc2ccc(F)c(Cl)c2)Cc2c(-c3cccc(C(N)=O)c3)ccnc2O1 (stereo not drawn),"inconclusive [inhibitor, single point]",–
Cc1ccc2oc(C(=O)N(C)Cc3ccon3)c(C)c2c1,inactive,–
CCOc1ccc(C(=O)CN2CCN(S(=O)(=O)c3ccc(OC)cc3)CC2)cc1,"inconclusive [inhibitor, full curve]",–
COc1ccc(Cn2c(SCC(=O)Nc3ccc(OC)cc3)nc3ccccc32)cc1,"inconclusive [inhibitor, single point]",–
Nc1cccc(C#Cc2ccc3c(c2)C(=O)/C(=C/c2ccsc2)O3)c1,inactive,–
CCCCNC(=O)C[C@@H]1C[C@@]2(C(=O)OCC)CCCC=C2N(Cc2ccc3c(c2)OCO3)C1=O,active: 20.6 µM,–

Compound,Potency,"activity change, negative = growth inhibition"
Cc1c(Cl)cccc1NC(=S)NNc1ncc(C(F)(F)F)cc1Cl,"inconclusive [inhibitor, single point]",–
COc1ccc(-c2n[nH]c(C)c2-c2cc(OC)ccc2O)cc1,"inconclusive [inhibitor, single point]",–
S=c1[nH]nc(-c2ccc3ccccc3n2)n1Cc1ccccc1,"inconclusive [inhibitor, single point]",–
CCc1ccc(CNC(=O)c2ccc(OC3CCN(C(=O)COC)CC3)cc2)nc1,"inconclusive [inhibitor, single point]",–
C/C(=N\Nc1ccc(C)c(Cl)c1)c1cccnc1,inactive,–
O=C1COc2ccc(NC(=O)N3CCN(c4ccc(F)cc4)CC3)cc2N1,"inconclusive [inhibitor, partial curve]",–
C[C@H](NC(=O)c1nc[nH]c1C(=O)N(C)Cc1ccccc1)C(=O)OC(C)(C)C,"inconclusive [inhibitor, single point]",–
c1ccc(CCc2nn3c(C4COc5ccccc5O4)nnc3s2)cc1 (stereo not drawn),"inconclusive [inhibitor, single point]",–
COc1ccc(C(C)C)cc1-c1cccc2nncn12,"inconclusive [inhibitor, full curve, poor fit]",–
COc1cc(NC(=O)Nc2nnc(N3CCCCCC3)s2)cc(OC)c1,active: 16.4 µM,–
Cc1c(C(=O)Nc2ccc(S(=O)(=O)N(C)C3CCN(C)CC3)cc2)oc2c(Cl)cccc12,"inconclusive [inhibitor, single point]",–
O=C(N/N=C/c1ccc(Cl)cc1Cl)c1n[nH]c2c1CCCC2,active: 2.91 µM,–
O=c1cc(C(F)(F)F)[nH]c2c(C(F)(F)F)cccc12,active: 16.4 µM,–
COc1ccccc1NC(=O)Cc1nnc(SCC(=O)Nc2nccs2)n1C,inactive,–
O=C(c1ccccc1Sc1ccc([N+](=O)[O-])cc1Cl)N1CCOCC1,"inconclusive [inhibitor, single point]",–
O=C(CN1C(=O)NC(Cc2c[nH]c3ccccc23)C1=O)Nc1ccc(F)c(F)c1F (stereo not drawn),"inconclusive [inhibitor, single point]",–
CCN(CC)S(=O)(=O)c1cccc(C(=O)NC(C)C(c2cccs2)N2CCCC2)c1 (stereo not drawn),"inconclusive [inhibitor, single point]",–
CSc1cccc(NC(=O)C2CCN(S(C)(=O)=O)CC2)c1,inactive,–
NC(=O)C(c1ccccc1)c1ccc(C(=O)c2ccccc2)cc1 (stereo not drawn),"inconclusive [inhibitor, partial curve, poor fit]",–
N#Cc1ccc2sn(-c3ccccc3)c(=O)c2c1,active: 4.61 µM,–
Cc1ccc(C)c(S(=O)(=O)Nc2ccc(C(=O)N3CCCCC3)cc2)c1,"inconclusive [inhibitor, single point]",–
COc1cccc(C2=C(C(C)=O)Sc3nnc(C4CCCCC4)n3N2C(C)=O)c1,active: 11.6 µM,–
